Measurements from paper PMC9574860, “Chemical Toolkit for PARK7: Potent, Selective, and High-Throughput” (Journal of Medicinal Chemistry, 2022).
Among all 7,900 compounds or so, about 400 (5.1%) showed an effect of 50% or more. Some of the results follow.

These compounds were tested against Parkinson's disease protein 7 (PARK7/DJ1) (human, UniProt Q99497) (assay: primary screen, percent inhibition; read as competition with a fluorescent probe by fluorescence polarization; higher = more effect of the substance). Details: 100 µM.
Procedure, shortened: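 Fluorescence-polarization probe displacement (JYQ-107, 20 nM final, 2 h) after 2 h preincubation of PARK7 (0.2 μM final) with each fragment at 100 μM final. Read-out ex/em 480/520 nm; remaining activity derived from FP signal loss relative to reference controls.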

Parkinson's disease protein 7 (PARK7/DJ1), sequence (Q99497 whole entry, looked up, the tested form may be a part): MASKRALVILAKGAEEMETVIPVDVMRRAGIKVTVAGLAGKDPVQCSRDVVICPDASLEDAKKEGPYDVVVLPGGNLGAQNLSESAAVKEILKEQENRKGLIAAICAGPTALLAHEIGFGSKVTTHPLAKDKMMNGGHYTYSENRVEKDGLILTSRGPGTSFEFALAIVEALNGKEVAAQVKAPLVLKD

Row | SMILES | Inhibition % [%]
1 | CC(Cc1ccc(O)cc1)NC(=O)c1cccnc1S (stereo not shown) | 3.88
2 | Cc1cc([N+](=O)[O-])ccc1NC(=O)CCl | 18.4
3 | Cl.SCCNC1CCCCC1 | 4.63
4 | Cc1cc(C(=O)CCl)c(C)n1-c1ccccn1 | 71.3
5 | COc1cc(C)c(C)cc1S(=O)(=O)n1ccnc1C | 1.84
6 | Cc1ccccc1CN1CCC(C2OCCO2)CC1 | 9.85
7 | CCc1oc2ccccc2c1C=C(C#N)C(=O)NC1CC1 | -0.758
8 | Cc1cc(Cl)nc(C#N)c1 | 20.8
9 | CC(C)CN(C(=O)CCl)C1CC1 | 6.01
10 | CN(C)CCN(C)c1ccc(B2OC(C)(C)C(C)(C)O2)cc1 | 3.58
11 | C=CC(=O)N1CCCCc2c(OC)cccc21 | 6.65
12 | CN1CCN(c2oc(-c3ccccc3)nc2C#N)CC1 | -1.53
13 | O=S(=O)(F)c1ccc(Nc2cnn(CC(F)(F)F)c2)nc1 | 21.1
14 | Cc1ccc(C(C)C)cc1S(=O)(=O)n1cccn1 | 4.67
15 | CCC1(CNc2ccc(S(=O)(=O)F)cn2)CC1 | 0.0936
16 | O=C1OCCC1N1CCC(C(=O)N2CCCCC2)CC1 (stereo not shown) | 3.78
17 | CC1(C)OB(c2cnn(-c3ccc(Cl)cc3Cl)c2)OC1(C)C | 3.3
18 | O=C1OCCC1Sc1nccn1-c1ccccc1 (stereo not shown) | 0.695
19 | C=CC(=O)N1CCC(Cc2ccncc2)C1 (stereo not shown) | 6.08
20 | N#CC=CN1CCc2ccccc2C1 | 26.8
21 | O=C(CCl)NC(=O)NCc1ccccc1 | 6.39
22 | Cl.NCC1OB(O)c2ccccc21 (stereo not shown) | 3.67
23 | CC(C#N)NC(=O)CCn1c(S)nc2ccccc2c1=O (stereo not shown) | 10.2
24 | C=CC(=O)N1CCC2(C1)Oc1ccccc1O2 | 6.75
25 | CCOC(=O)[C@@H]1CN(C(=O)OC(C)(C)C)C[C@H]1B1OC(C)(C)C(C)(C)O1 (racemic) | 3.39

Row | SMILES | Inhibition % [%]
26 | CCOC(=O)c1c(NC(=O)CCl)sc2c1CCC2 | 5.34
27 | CC1(C)OB(c2cc3ccoc3cc2F)OC1(C)C | 9.27
28 | Cn1cnc2cc(B3OC(C)(C)C(C)(C)O3)ccc21 | 8.19
29 | C=CC(=O)N(C)C1CCN(CC)CC1C (stereo not shown) | 28.7
30 | C=CC(=O)NCC1CCOC(C)(C)C1 (stereo not shown) | 11.3
31 | Cc1nn(-c2ccccc2)c(C)c1NC(=O)CCCl | 4.56
32 | C=CC(=O)N[C@@H]1CC=CC[C@H]1C (racemic) | 12.5
33 | C=CC(=O)Nc1ccccc1N1CC2CCC1C2 (stereo not shown) | 14.2
34 | CC(c1ccccc1)C1CO1 (stereo not shown) | -0.54
35 | N#Cc1ncn(Cc2ccc(C(=O)N3CCCC3)cc2)n1 | 4.22
36 | Cc1ccc(Cl)cc1NC(=O)CN1CCSC1=O | -2.92
37 | C=CC(=O)N1C2CCCC1COC2 | 9.14
38 | O=C1OCCC1Sc1ncccc1Cl (stereo not shown) | 7.32
39 | O=C(CCl)Nc1ccc(Oc2ccccc2)cc1 | 84.2
40 | O=C(CCl)N1CCN(C(=O)C2CC2)CC1 | 56.1
41 | C=CC(=O)N1CCC1(C)C1CCCCC1 (stereo not shown) | 6.7
42 | CC(N)c1ccc(B2OC(C)(C)C(C)(C)O2)cc1.Cl (stereo not shown) | 4.31
43 | CNC(=O)C(C#N)=Cc1cc2cc(C)c(C)cc2o1 | 11.4
44 | N#CC1(CC2CO2)CCOCC1 (stereo not shown) | 11.8
45 | O=c1onc(-c2ccccn2)n1Cc1ccccc1 | 5.11
46 | C=CC(=O)NC1CCN(C(=O)CC)CC1C (stereo not shown) | 3.82
47 | C=CC(=O)NCCc1noc(-c2ccccn2)n1 | 11
48 | N#CC(=Cc1ccccc1OCC(F)(F)F)C(=O)O | 20.2
49 | COc1cccc(CS)c1 | 15.4
50 | Cc1cc(B2OC(C)(C)C(C)(C)O2)n(C2CCCCO2)n1 (stereo not shown) | 4.86

Row | SMILES | Inhibition % [%]
51 | C=CC(=O)Nc1nc2ncccn2n1 | 6.78
52 | C=CC(=O)N1CCC(n2cc(Br)cn2)CC1 | 10.1
53 | C=CC(=O)N1CC(=O)NCC1(C)C | 11.6
54 | C=CC(=O)NC1CCCC1C(C)(C)C (stereo not shown) | 6.75
55 | Cc1nn(C)c(Cl)c1C=CC(=O)N1CC(C)NC(C)C1 (stereo not shown) | 9.72
56 | N#Cc1cncc(NC2C3CC4CC2CC(F)(C4)C3)n1 (stereo not shown) | 8
57 | C=CC(=O)NC(CC)C(=O)N1CCOCC1 (stereo not shown) | 17.1
58 | N#Cc1ncn(CCOc2cccc(Cl)c2)n1 | 2.66
59 | OB(O)c1cc(F)ccc1OCCc1ccccc1 | 3.95
60 | C=CC(=O)NCc1ccc2c(c1)CCO2 | 9.41
61 | O=C(CCl)NC1CCCCNC1=O (stereo not shown) | 13.7
62 | C=CC(=O)NC1(COC)CCOC1 (stereo not shown) | 4.59
63 | CC1CCCN(C(=O)C=Cc2cnc3ccccc3n2)C1 (stereo not shown) | 9.42
64 | O=C1COc2ccccc2N1CCCl | 4.53
65 | Cc1ccc(Cl)cc1B(O)O | 8.59
66 | C=CC(=O)NC[C@@H]1CC(=O)N(C)[C@H]1c1c(C)nn(C)c1C | 8.72
67 | O=C(O)C=CC(=O)N1CCCc2ccccc21 | 14.1
68 | CC1CN(C)CCN1C(=O)C=Cc1nccs1 (stereo not shown) | 15.8
69 | C=CC(=O)NCc1cnc(C)s1 | 6.09
70 | O=C(CCl)N(Cc1ccco1)CC(F)(F)F | 11.9
71 | Cc1csc(NC(=O)CCN2C(=O)CCC2=O)n1 | 5.08
72 | O=C(CCl)NC1CCOc2ccccc21 (stereo not shown) | 15.1
73 | O=C1OCCC1N1CCc2sccc2C1 (stereo not shown) | 4.89
74 | CCc1oc2ccccc2c1C=C(C#N)C(N)=O | 3.72
75 | O=c1[nH]c(-c2ccc(F)c(Cl)c2)no1 | 12.5

Row | SMILES | Inhibition % [%]
76 | CCc1ccc(OC)c(S(=O)(=O)n2ccnc2)c1 | 1.17
77 | CC(C)(C)OC(=O)N1CCN(Cc2ccc(B3OC(C)(C)C(C)(C)O3)cc2)CC1 | 2.85
78 | CNC(=O)c1cncc(C=CC(=O)N2CCNCC2C)c1.Cl (stereo not shown) | 5.63
79 | C=CC(=O)NC[C@]12OCCC[C@H]1C2(F)F (racemic) | 10.3
80 | Cc1cc(C#N)nc(=O)[nH]1 | -14.8
81 | C=CC(=O)N1CCCC(C2CCCCO2)C1 (stereo not shown) | 4.84
82 | O=c1[nH]c(-c2ccccn2)no1 | 28
83 | CSc1nccnc1C#N | 1.38
84 | COc1ccccc1C(C)N(C)C(=O)CCl (stereo not shown) | 31.5
85 | Cl.Cn1nccc1CCCl | 6.9
86 | N#Cc1nnc2ccccc2c1N | 1.29
87 | O=C(Oc1ccnc2cc(Cl)ccc12)N1CCCC1 | 5.44
88 | Cc1noc(C)c1S(=O)(=O)Oc1cccc(F)c1C#N | 14.8
89 | CC1(C)OB(c2cc3nccnc3cc2Cl)OC1(C)C | 5.05
90 | CS(=O)(=O)N(c1ccc(F)cc1)C1C=CS(=O)(=O)C1 (stereo not shown) | 9.84
91 | O=C(C=Cc1cnn(-c2ccccc2)c1)N1CCCC1 | 1.16
92 | CNc1cnc(C#N)cn1 | 3.91
93 | CC(OS(C)(=O)=O)C(C)c1ccc2ccccc2n1.Cl (stereo not shown) | 24.3
94 | O=C1c2ccccc2S(=O)(=O)N1CCS(=O)(=O)F | 32.5
95 | O=S(=O)(F)c1ccc(Cn2cnc(Br)n2)cc1 | 12.6
96 | FC(F)(F)C1(c2ccccc2)CO1 (stereo not shown) | 8.56
97 | N#Cc1cn(CC(=O)N2CCCC3CCCCC32)nn1 (stereo not shown) | 6.52
98 | C=CC(=O)N1[C@@H]2CC[C@H]1CN(C)C(=O)C2 (racemic) | 16.7
99 | O=C(CCl)Nc1ccc(Cl)c(F)c1 | 36.8
100 | C#CC(=O)c1ccc(Cl)cc1 | 2.9

Row | SMILES | Inhibition % [%]
101 | O=S(=O)(c1cccc(F)c1)N1CCCCC1C1OCCO1 (stereo not shown) | 3.08
102 | CC1(C)CC(C)(NCc2cccc(F)c2)C(=O)O1 (stereo not shown) | 14.4
103 | COc1cc(S(=O)(=O)n2cccn2)ccc1Cl | 8
104 | C=CC(=O)NCc1nc(-c2ccc(Cl)cc2)c[nH]1 | 10.1
105 | CS(=O)(=O)OCC1CC2CCC1O2 (stereo not shown) | 10.8
106 | CCn1cc(B2OC(C)(C)C(C)(C)O2)c(C2CC2)n1 | 7.62
107 | O=S(=O)(Oc1cn2ccccc2n1)C(F)(F)F | 14.9
108 | Cc1cc(S(=O)(=O)n2ccnc2)c(C)cc1Cl | 8.92
109 | COc1ccccc1B1OC(C)(C)C(C)(C)O1 | 6.7
110 | C=CC(=O)NC(C)C1CC1(F)F (stereo not shown) | 4.36
111 | N#Cc1cc(C(N)=O)c[nH]1 | 9.97
112 | CCC1SC(=C(C#N)C(N)=O)N(c2ccc(C)cc2)C1=O (stereo not shown) | 2.29
113 | Cc1cccc2[nH]cc(C(=O)CCl)c12 | 23.7
114 | O=c1c2ccsc2ncn1CCS(=O)(=O)F | 19.7
115 | O=C(NCC1CCCC1)n1ccnc1 | 40.7
116 | O=S(=O)(C=Cc1ccccc1)N1CCOc2ncccc21 | 38.6
117 | COc1ccc(NC(=O)CCl)c(OC)c1 | 6.58
118 | Cc1ccc(C(C)NC(=O)Cn2cnc(C#N)n2)cc1C (stereo not shown) | 3.5
119 | Cn1nc(C(=O)O)cc1C#N | 1.8
120 | O=C(O)Cn1c(S)nc2ccccc2c1=O | -3.22
121 | COc1ccc(C2CCCCCN2C(=O)CCl)cc1 (stereo not shown) | 8.03
122 | C=CC(=O)N1CCC(Cn2cncn2)CC1 | 11.9
123 | CC1(C)CN(c2ccc(C#N)nc2)CC1O (stereo not shown) | 5.17
124 | CCN(CC)c1ncc(B2OC(C)(C)C(C)(C)O2)cn1 | -0.275
